The target in this assay is T1, tandem harmonin homology domains (HHD1+2) of human RTEL1, residues 886-1140 (human, UniProt Q9NZ71-6 886-1140).
T1 sequence: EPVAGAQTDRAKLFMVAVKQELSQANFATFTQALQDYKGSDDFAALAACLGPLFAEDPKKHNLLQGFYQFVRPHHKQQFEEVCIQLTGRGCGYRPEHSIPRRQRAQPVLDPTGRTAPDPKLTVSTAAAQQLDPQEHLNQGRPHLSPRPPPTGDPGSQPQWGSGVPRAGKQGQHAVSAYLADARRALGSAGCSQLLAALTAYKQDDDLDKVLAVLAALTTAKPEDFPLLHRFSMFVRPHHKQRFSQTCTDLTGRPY
The assay can be described thus: NMR titration.

The values that follow come from paper doi:10.1101/2022.08.08.503141 (bioRxiv, 2022).

B1: winged-helix domain 32C of human RPA ([…] of RPA2) (domain or fragment)
chain: not shown
As to B1, the binding result was “binds”.
